In patent US10533050B2, “Methods and compositions for liver cancer therapy” (Institut National de la Sante et de la Recherche Medicale …, priority 2010, dated 2020):
Numbering of substitutions follows the chain as printed.

B1: MAb13: murine C-terminal anti-hPG monoclonal antibody, hybridoma 2C6C3C7, VH SEQ ID NO:60, VL SEQ ID NO:64 (antibody, V domains shown)
VH: EVQLVESGGGLVQPGGSLKLSCAASGFIFSSYGMSWVRQSPDRRLELVASINTFGDRTYYPDSVKGRFTISRDNAKNTLYLQMTSLKSEDTAIYYCARGTGTYWGQGTTLTVSS
VL: DVVLTQTPLTLSVTIGQPASISCKSSQSLLDSDGKTYLNWLLQRPGQSPKRLIYLVSKLDSGVPDRFTGSGSGTDFTLKISRVEAEDLGVYYCWQGTHFPQTFGGGTKLEIK
B2: MAb16: murine N-terminal anti-hPG monoclonal antibody, hybridoma 1E9D9B6, VH SEQ ID NO:61, VL SEQ ID NO:65 (antibody, V domains shown)
VH: QVQLQQSGAELVKPGASVKLSCKASGYTFTSYYMYWVKQRPGQGLEWIGEINPSNGGTNFNEKFKSKATLTVDKSSSTAYMQLSSLTSEDSAVYYCTRGGYYPFDYWGQGTTLTVSS
VL: B1 VL with L4M, Q17R, N39Y, K58E, F67I, F99S, Q101Y

Experiments:
Assay type in all cases: cell-based
[1] = tested on: liver cancer cells; test: Neutralizing activity with liver cancer cells; details: tests with liver cancer cells
Procedure: A specific test for assessing whether a particular anti-hPG antibody is neutralizing can be performed as follows. Huh7 hepatocellular carcinoma cells are seeded in ultra low-adherence 24-well plates (500 cells/well) in serum-free M11 medium. Cells are grown at 37° C. and treated twice daily for 7 days with the test anti-hPG antibody or a control, non-specific monoclonal antibody, at antibody concentrations of about 5 μg/mL. At the end of the experiment, photomicrographs are taken, and the number of spheres per well is counted and the median and percentile distribution calculated.

[2] = tested on: Huh7 hepatocellular carcinoma cells; test: Spheroid formation of Huh7 cells under low adherence culture conditions; details: 7 days
Procedure: (§1) In a first experiment, Huh7 hepatocellular carcinoma cells were seeded in ultra low-adherence 24-well plates (500 cells/well) in serum-free M11 medium (DMEM/F12 with 20 ng/ml EGF, 10 ng/ml FGF, 20 μg/ml insulin, N2 supplement, 2 μg/ml ciprofloxacin, 5 μg/ml gentamycin and 3 μg/ml glucose). Cells were treated twice daily for 7 days at 37° C. with vehicle (PBS, Control) or with 3 μg/ml anti-hPG MAb13 monoclonal antibody (anti-hPG MAb 13). At the end of the experiment, photomicrographs were taken, and the number of spheres per well counted and the median and percentile distribution calculated.
as §1, with “second” for “first”, “6” for “vehicle (PBS, Control) or with 3”, “of one of: a control” for “anti-hPG MAb13”, “(Control MAb, (P3X63Ag8, ATCC, Ref TIB-9), anti-hPG MAb13, or anti-hPG MAb16 monoclonal antibodies.” for “(anti-hPG MAb 13).”

[3] = tested on: PLC/PRL/5 hepatocellular carcinoma cells; test: Spheroid formation of PLC/PRL/5 cells under low adherence culture conditions; details: 6 μg/ml twice daily, 7 days, vs control MAb
Procedure: PLC/PRL/5 hepatocellular carcinoma cells were seeded in ultra low-adherence 24-well plates (220 cells/well) in serum-free M11 medium (DMEM/F12 with 20 ng/ml EGF, 10 ng/ml FGF, 20 μg/ml insulin, N2 supplement, 2 μg/ml ciprofloxacin, 5 μg/ml gentamycin and 3 μg/ml glucose). Cells were grown for 10 days at 37° C., with the daily addition of control or anti-hPG MAb3 monoclonal antibodies (1 μg/ml). At the end of the experiment, photomicrographs were taken, and the number of spheres per well counted and the mean and standard deviation calculated. In one experiment, PLC/PRL/5 hepatocellular carcinoma cells were seeded in ultra low-adherence 96-well plates (35 cells/well) in serum-free M11 medium (DMEM/F12 with 20 ng/ml EGF, 10 ng/ml FGF, 20 μg/ml insulin, N2 supplement, 2 μg/ml ciprofloxacin, 5 μg/ml gentamycin, and 3 μg/ml glucose). […] At the end of the experiment, photomicrographs were taken, and the number of spheres per well counted and the median and percentile distribution calculated. […] At the end of the experiment, photomicrographs were taken, and the number of spheres per well counted and the median and percentile distribution calculated. […] At the end of the experiment, photomicrographs were taken, and the number of spheres per well counted and the median and percentile distribution calculated.

[4] = tested on: Huh7 hepatocellular carcinoma cells; test: Spheroid formation of Huh7 cells after antibody pre-treatment under regular adherence; details: pre-treatment with 10 μg/mL, then 5 days without treatment, vs control MAb; FIG. 13A-B
Procedure: In one experiment, 75,000 Huh7 hepatocellular carcinoma cells/well were first seeded into 6-well plates in MEMα with 10% FCS, serum starved overnight and grown for 60 hours in MEMα+0.5% Pannexin H in the presence of 10 μg/mL anti-progastrin monoclonal antibody MAb8 or control monoclonal antibody (P3X63Ag8, ATCC, Ref TIB-9). At the end of treatment, for each treatment group, 500 cells/well were plated into eight wells of ultra low-adherence 24-well plates in 500 μl of serum-free M11 medium containing bFGF and EGF, and grown for a further 5 days without treatment. At the end of this period, photographs were taken, the number of spheres per well was counted, and sphere surface was measured. […] Thereafter, an operator who was blinded to the identity of all wells counted the spheroids.
In a second experiment, 75,000 Huh7 hepatocellular carcinoma cells/well were first seeded into 6-well plates in MEMα with 10% FCS, serum starved overnight and grown for 60 hours in MEMα+0.5% Pannexin H in the presence of 10 μg/mL anti-progastrin monoclonal antibody MAb16 or a control monoclonal antibody (P3X63Ag8, ATCC, Ref TIB-9). […] At the end of this period, photographs were taken, the number of spheres per well was counted, and sphere surface was measured. […] Thereafter, an operator who was blinded to the identity of all wells counted the spheroids.

[5] = 6 μg/ml twice daily, vs control monoclonal antibody, FIG. 12B

Molecule	Neutralizing activity [1]	Number of spheroids formed ([2]; 3 μg/ml twice daily, vs untreated (PBS) control, FIG. 12A)	Number of spheroids formed [2, 5]	Number of spheroids formed ([3]; FIG. 15B)	Number of spheroids formed ([3]; FIG. 15C)	Ability to grow as spheroids [4]
B1	exhibited neutralizing activity	substantially reduced	substantially reduced	significantly reduced	significantly reduced	–
B2	exhibited neutralizing activity	–	substantially reduced	–	–	significantly reduced
